The campaign covered roughly 55,000 compounds. About 530 (0.96%) were called active. Inconclusive results, whose numbers are uncertain, are shown with a selection of clear calls. Calls come from the whole dose curve; as a rule, active = well fitted cell-killing curve with a large enough effect; inconclusive = small, poorly fitted or top-dose-only effect; inactive = no such curve, though single readings can be large or run the other way. A potency beside an inconclusive call is a rough fit, not a confirmed value.
test: qHTS Screen for Compounds that Selectively Target Cancer Cells with p53 Mutations: Cytotoxicity of p53 Null Cells at the Nonpermissive Temperature; conditions: H1299 p53-null (neo) cells, 39C, ATPlite viability, 24 h; activity, negative = cell killing: at 46.1 µM (top of the series); note: nearly all actives have a fitted effect of over 50% in size;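 for activity, negative = cell killing: 0% = DMSO only and -100% = full killing by 100 µM tamoxifen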
In short: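 ATP-luminescence viability readout (ATPlite, 20 min RT) after 24 hr compound treatment at 39C of H1299-neo or H1299-p53A138V cells; titration up to 46 uM; normalized to DMSO and 100 uM tamoxifen; Hill-fit AC50.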
Potency is the fitted concentration of half-maximal effect; tags give direction and shape of the fitted curve.

| SMILES | Potency | activity, negative = cell killing |
| --- | --- | --- |
| O=C(Nc1ccc2nc(SCC(=O)N3CCCC3)sc2c1)c1cccc(Cl)c1 | inconclusive: 12.6 µM [cytotoxic, partial curve, poor fit] |  |
| CC1=Nc2cc(C(=O)NCCc3ccccc3)ccc2Sc2c(C)ccc(C)c21 | inconclusive: 0.891 µM [cytotoxic, partial curve] |  |
| COC(=O)c1c(C)oc2ccc(N(C(=O)c3ccncc3)S(=O)(=O)c3c(C)cc(C)cc3C)cc12 | inactive |  |
| O=C(NCc1ccccc1)c1nc(S(=O)(=O)Cc2ccccc2)ncc1Cl | inactive |  |
| Cc1ccc(C)c(N2CCN(C(=O)c3cc(S(=O)(=O)N4CCC(C)CC4)cn3C)CC2)c1 | inactive |  |
| COc1ccccc1Cn1cc(C(=O)c2ccc(F)cc2)c(=O)c2cc3c(cc21)OCO3 |  | inconclusive: -34.3% [cytotoxic] |
| Cc1c(C(=O)N2CCCC2)oc2c1-c1nn(CC(=O)NC(C)c3ccccc3)cc1CC2 (stereo unspecified) | inconclusive: 7.94 µM [cytotoxic, partial curve] |  |
| CCCOc1ccc(-c2nc(N3CCC(C)CC3)c3ccccc3n2)cc1 | inactive |  |
| Cc1cccc(C)c1OCC(=O)Nc1c(C(=O)c2ccc(Br)cc2)oc2ccccc12 | inconclusive: 0.0112 µM [cytotoxic, full curve] |  |
| CCC(C)NC(=O)c1[nH]c2cc(C)ccc2c1Sc1ccc(Cl)cc1 (stereo unspecified) | inactive |  |
| CCC1=Nc2cc(C(=O)NCc3ccc(C)cc3)ccc2Sc2ccc(C)cc21 | inactive |  |
| COc1ccc(CCNC(=O)c2ccc(Cn3c(=O)c4ccccc4n(Cc4ccc(C)cc4)c3=O)cc2)cc1OC | inconclusive: 0.316 µM [cytotoxic, full curve, poor fit] |  |
| CC(C)c1ccc(NC(=O)CC2Oc3ccccc3NC2=O)cc1 (stereo unspecified) | inconclusive: 22.4 µM [cytotoxic, single point] |  |
| Clc1ccc(-c2nc3n(n2)Cc2ccccc2-3)cc1 | inconclusive: 0.1 µM [cytotoxic, full curve, poor fit] |  |
| Cc1cc(C)c2oc(-c3ccc(C)c(NC(=O)/C=C/c4ccco4)c3)nc2c1 | inconclusive: 31.6 µM [cytotoxic, partial curve] |  |
| COc1ccc(-n2c(=O)c3c(c4cc(OC)ccc4n3C)n(CCC(C)C)c2=O)cc1 | inactive |  |
| COCCNC(=O)CCCn1c(SCc2ccccc2Cl)nc2c(sc3ccccc32)c1=O | inconclusive: 3.16 µM [cytotoxic, partial curve] |  |
| COC(=O)Cc1c(C)nc2nc(-c3ccc(C)cc3)[nH]n2c1=O | inconclusive: 7.94 µM [cytotoxic, partial curve] |  |
| COc1cccc(-c2oc3ccc(C)cc3c(=O)c2O)c1 | active: 22.4 µM |  |
| CC(=O)c1ccc(NC(=O)CC2Nc3cc(C)c(C)cc3NC2=O)cc1 (stereo unspecified) | inconclusive: 0.316 µM [cytotoxic, full curve, poor fit] |  |
| Cn1c(C(=O)NCCc2ccccc2)cc2sc(Cl)cc21 | active: 7.94 µM |  |
| CCc1cc(=O)[nH]c(SCc2nc(-c3cccc(Cl)c3)no2)n1 | inactive |  |

| SMILES | Potency | activity, negative = cell killing |
| --- | --- | --- |
| Cc1ccc(Cl)cc1N1CCN(S(=O)(=O)c2ccc3c(c2)C(C(C)C)C(=O)N3)CC1 (stereo unspecified) | inactive |  |
| O=S(=O)(c1ccc(-c2csc(=Nc3ccc(F)cc3)n2CCCCCCO)cc1)N1CCCC1 | inconclusive: 15.8 µM [cytotoxic, partial curve] |  |
| O=C(Cn1c(=O)n(Cc2ccccc2)c(=O)c2sc3ccccc3c21)Nc1ccc(F)cc1 | inconclusive: 12.6 µM [cytotoxic, single point] |  |
| CCN1CCN(c2cc(C)c3cc(NC(=O)/C=C/c4cccc(OC)c4OC)ccc3n2)CC1 | inconclusive: 31.6 µM [cytotoxic, single point] |  |
| C=CCc1cccc2cc(-c3nc4ccc(C(=O)O)cc4[nH]3)c(=O)oc12 | inconclusive: 31.6 µM [cytotoxic, single point] |  |
| CCc1ccc2occ(CC(=O)Nc3nnc(SC)s3)c2c1 | inconclusive: 0.005 µM [cytotoxic, full curve, poor fit] |  |
| Cc1cc(OC(C)C(=O)N(Cc2ccco2)Cc2ccco2)cc(C)c1Cl (stereo unspecified) | inconclusive: 25.1 µM [cytotoxic, single point] |  |
| COc1ccccc1/C=N/Nc1nncc2ccccc12 | inconclusive: 35.5 µM [cytotoxic, single point] |  |
| C[C@H](NC(=O)OC(C)(C)C)c1nnc(SCc2ccc(Cl)cc2Cl)o1 | inconclusive: 12.6 µM [cytotoxic, partial curve] |  |
| COc1ccc(-n2ccnc(NCCc3ccc(S(N)(=O)=O)cc3)c2=O)cc1Cl | inactive |  |
| CCOC(=O)C(Cc1ccccc1)NC(=O)Cn1nnc(-c2ccc(C)cc2)n1 (stereo unspecified) | inactive |  |
| COc1cc2[nH]c(=O)n(CCCC(=O)N(C)Cc3ccccc3)c(=O)c2cc1OC | inactive |  |
| Cc1ccc(NC(=O)Cn2c(=O)n(CC(=O)NCCc3ccccc3)c(=O)c3ccccc32)cc1 | inconclusive: 10 µM [cytotoxic, partial curve] |  |
| COc1ccc(NC(=O)CN2C(=O)C(=O)c3ccccc32)c(OC)c1 | inconclusive: 35.5 µM [cytotoxic, single point] |  |
| CCn1c(=O)c2sccc2n2c(CCCC(=O)Nc3ccc(Oc4ccccc4)cc3)nnc12 | inconclusive: 11.2 µM [cytotoxic, partial curve, poor fit] |  |
| COC(=O)c1ccc2c(c1)N(CC(=O)Nc1ccc(C)c(C)c1)C(=O)c1ccccc1S2 | inconclusive: 0.794 µM [cytotoxic, full curve, poor fit] |  |
| CCOC(=O)N1CCN(Cc2nc3cc(NC(=O)CC(C)C)ccc3n2C(C)C)CC1 | inconclusive: 2.82 µM [cytotoxic, full curve] |  |
| CCOc1ccc(/C=C/c2nc(C#N)c(NCc3ccc(OC)cc3)o2)cc1 |  | inconclusive: -31.8% [cytotoxic] |
| Cc1noc(C)c1S(=O)(=O)N(CC(=O)Nc1ccc(C(F)(F)F)cc1)c1ccc(C(C)C)cc1 | inconclusive: 6.31 µM [cytotoxic, single point] |  |
| CN(C)c1ccc(-c2nc3ccc(Cl)cn3c2Nc2ccc3c(c2)OCCO3)cc1 | inconclusive: 2.51 µM [cytotoxic, full curve, poor fit] |  |
| CCc1nnc2c(Nc3cc(OC)c(Cl)cc3OC)nc3ccccc3n12 | inconclusive: 12.6 µM [cytotoxic, single point] |  |
| Cc1cccc(OCC(=O)Nc2ccc3nc(SCc4ccccc4)sc3c2)c1 | inconclusive: 4.47 µM [cytotoxic, full curve, poor fit] |  |

| SMILES | Potency | activity, negative = cell killing |
| --- | --- | --- |
| O=C(NCc1ccccn1)c1cc(-c2ccc(-c3ccccc3)cc2)nc2ccccc12 | active: 7.94 µM |  |
| Cc1ccc(-c2noc(-c3ccccc3OCC(=O)Nc3ccccc3[N+](=O)[O-])n2)cc1 | inactive |  |
| CCCN1CCN(CCCNC(=O)c2cc3c(s2)-c2c(C)cccc2OC3)CC1 | inconclusive: 15.8 µM [cytotoxic, single point] |  |
| O=C(CCc1nnc2n(Cc3ccccc3Cl)c(=O)c3ccccc3n12)Nc1ccc(F)c(F)c1 | inconclusive: 15.8 µM [cytotoxic, single point] |  |
| CNC(=O)C1CCN(Cc2cc3ccccc3n2Cc2ccccc2C)CC1 | inactive |  |
| Cc1ccc(O)c(NC(=O)c2noc3c2CCCCC3)c1 | active: 12.6 µM |  |
| O=c1cc2nc(-c3cccs3)nc(SCCOc3ccc(Cl)cc3)n2[nH]1 | inactive |  |
| Cc1ccc(N(CC(=O)NCC(C)c2ccccc2)S(=O)(=O)N(C)C)cc1 (stereo unspecified) | inactive |  |
| Cc1cc(OCC(=O)Nc2cc(-c3nc4ccccc4[nH]3)ccc2C)ccc1Cl | inconclusive: 2 µM [cytotoxic, full curve, poor fit] |  |
| CNc1cc([N+](=O)[O-])ccc1N/C=C/C(=O)c1cccs1 | inactive |  |
| Cc1ccc(CN2CCC(CNC(=O)c3cc4ccc5cccnc5c4[nH]3)CC2)cc1 | inconclusive: 12.6 µM [cytotoxic, partial curve] |  |
| Cc1cc(NC(=O)c2ccccc2Cl)ccc1NC(=O)c1ccccc1 | inactive |  |
| O=S(=O)(Nc1cccc(-c2ccc(N3CCCCCC3)nn2)c1)c1ccccc1F | inconclusive: 1.26 µM [cytotoxic, full curve, poor fit] |  |
| COCCNC(=O)C(=O)NCC(c1cccnc1)N1CCN(c2ccccc2OC)CC1 (stereo unspecified) | inconclusive: 3.98 µM [cytotoxic, partial curve] |  |
| CCCN1C(=O)c2[nH]nc(-c3ccccc3O)c2C1c1cccc(OCc2ccccc2)c1 (stereo unspecified) |  | inconclusive: -37.8% [cytotoxic] |
| Cc1cc2c(cc1S(=O)(=O)CCC(=O)NCc1ccccc1)OCC(=O)N2 | inconclusive: 11.2 µM [cytotoxic, partial curve, poor fit] |  |
| COc1ccc(-c2cc(C(F)(F)F)n3nc(-c4ccc(Cl)cc4)cc3n2)cc1OC | inconclusive: 0.794 µM [cytotoxic, single point] |  |
| O=C(Nc1ccc(F)cc1F)c1ccc(-c2ccccc2)s1 | inconclusive: 10 µM [cytotoxic, partial curve, poor fit] |  |
| O=C(COc1ccccc1F)NC1CC(=O)N(c2ccc3c(c2)OCCO3)C1 (stereo unspecified) | inactive |  |
| CCC1CCCCN1CCCNC(=O)c1cc2c(Cl)nc3ccc(C)cc3c2s1 (stereo unspecified) | active: 20 µM |  |
| O=C(N/N=C/c1c[nH]c2ccccc12)c1cc(-c2ccc3ccccc3c2)n[nH]1 | inconclusive: 10 µM [cytotoxic, single point] |  |
| COc1ccc(C)c2sc(N(Cc3cccnc3)C(=O)COc3ccccc3)nc12 | inconclusive: 0.141 µM [cytotoxic, full curve, poor fit] |  |

— PubChem BioAssay AID904 (National Center for Advancing Translational Sciences (NCATS), 2007)
